Source: PubChem BioAssay AID1645882 (National Center for Advancing Translational Sciences (NCATS), 2021)
The campaign covered roughly 16,000 compounds. About 120 (0.75%) were called active. Another 4% or so got no clear call; they are omitted. The call rests on the fitted dose curve; in most records, active means well fitted inhibition curve with a large enough effect; inconclusive means small, poorly fitted or top-dose-only effect; inactive means no such curve, though single readings can be large or run the other way. The list shows a part of the results.

What follows are compounds tested against Rap guanine nucleotide exchange factor 3 (Homo sapiens) (UniProt O95398) (assay: Validation qHTS for antagonist of cAMP-regulated guanine nucleotide exchange factor 3 (EPAC1)). Details: EPAC1 Rap1B-BODIPY-GDP exchange, fluorescence; series mostly up to 150 µM; activity change, negative = inhibition: at the top concentration.
Summary of the method: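 EPAC1 (100 nM) mixed with 250 nM RAP1B-BODIPY-GDP and 50 uM GDP; compounds in concentration series, 5 min at room temperature. Fluorescence (ex 480/em 540 nm) read every 5 min for 30 min; normalized to ATA control and DMSO.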
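Further: plate controls were DMSO for no effect and ATA control for full effect; nearly all actives have a fitted effect of over 75% in size.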

Sequence of UniProt O95398 (O95398 whole entry, looked up): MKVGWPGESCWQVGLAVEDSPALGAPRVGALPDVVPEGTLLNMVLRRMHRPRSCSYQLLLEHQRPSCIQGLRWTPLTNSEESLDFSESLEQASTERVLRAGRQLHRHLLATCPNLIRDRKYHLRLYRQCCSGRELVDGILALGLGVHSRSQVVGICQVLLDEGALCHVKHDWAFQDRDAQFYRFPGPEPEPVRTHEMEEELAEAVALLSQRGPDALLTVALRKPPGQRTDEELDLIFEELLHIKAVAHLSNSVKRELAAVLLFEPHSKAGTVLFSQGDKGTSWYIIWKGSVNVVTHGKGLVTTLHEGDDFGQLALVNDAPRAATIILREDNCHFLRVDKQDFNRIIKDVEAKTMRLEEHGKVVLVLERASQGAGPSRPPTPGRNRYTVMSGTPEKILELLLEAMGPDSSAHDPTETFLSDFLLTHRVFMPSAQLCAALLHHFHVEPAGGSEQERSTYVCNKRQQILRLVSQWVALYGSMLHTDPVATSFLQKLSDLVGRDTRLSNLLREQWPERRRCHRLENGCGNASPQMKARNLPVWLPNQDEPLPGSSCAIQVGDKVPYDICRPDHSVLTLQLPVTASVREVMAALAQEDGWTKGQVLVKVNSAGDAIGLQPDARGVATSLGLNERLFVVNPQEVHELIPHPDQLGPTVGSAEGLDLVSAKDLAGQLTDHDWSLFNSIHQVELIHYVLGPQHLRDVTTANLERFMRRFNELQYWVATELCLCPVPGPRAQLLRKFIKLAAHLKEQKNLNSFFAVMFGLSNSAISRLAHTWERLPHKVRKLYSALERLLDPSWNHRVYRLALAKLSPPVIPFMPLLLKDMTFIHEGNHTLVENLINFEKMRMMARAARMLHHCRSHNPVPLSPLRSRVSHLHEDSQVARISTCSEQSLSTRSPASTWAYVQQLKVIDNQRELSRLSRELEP

Activity change, negative = inhibition, inactive:
O=c1[nH]cnc2[nH]cc(CN3CCCCC3)c12 11%, Cn1ccc(C(=O)NCC2CCC3(CCN(Cc4ccc(F)cc4F)CC3)O2)n1 (centres undefined) 4.12%, CC(C)(Cc1c[nH]c2ccccc12)NCC(O)COc1ccccc1C#N (centres undefined) 14.3%, O=C(NCC1Cc2cccc(-c3cccnc3)c2O1)c1cc(-c2ccccc2)n[nH]1 (centres undefined) 5.87%, OC(CCN1CCCCC1)(c1ccccc1)c1ccccc1, CC(=O)[C@H]1[C@H](C#N)C[C@H]2[C@@H]3CC=C4C[C@@H](O)CC[C@]4(C)[C@H]3CC[C@@]21C -1.47% [at 201 µM], Cc1ccc(Nc2nccc(N(C)c3ccc4c(C)n(C)nc4c3)n2)cc1S(N)(=O)=O 12.1%, O=C1CCN(CCc2ccccc2)CCN1[C@H](CSc1ccccc1)c1ccccc1 -7.86%, Cc1noc(C)c1C(=O)N1CCC2(CC1)CN(c1ncccn1)C2 13.8%, CCc1ccc(/C=C2/SC(=S)NC2=O)cc1 3.5% [at 75.8 µM], COc1ccccc1CNc1ncnc2ccc(-c3ccc(N(C)C)cc3)cc12 21.1%, CN=C1C=CC(=C(c2ccc(N(C)C)cc2)c2ccc(N(C)C)cc2)C=C1 -11.5%, COc1ccc(-c2nc3cnc(Oc4cccc(Cl)c4)nc3n(C3CC3)c2=O)cc1 13.8%, O=S(=O)(NCc1nc(N2CCCC2)c2cc(Cl)ccc2n1)c1ccccc1OC(F)(F)F -4.38%, O=C1C[C@H]2C=CCc3cccc(c32)CN1Cc1ccc(Br)cc1 -11.3%, Cc1cc(N(C)C)cc(C)c1C=O 19.6%, OCCCNCc1cc2ccc(F)cc2nc1N1CCN(c2cccc(Cl)c2)CC1 -4.89%, CCN(CC)CCNC(=O)c1cc(Br)c(N)cc1OC 16.4%, Nc1nc(/C(=C/CC(=O)O)C(=O)N[C@@H]2C(=O)N3C(C(=O)O)=CCS[C@H]23)cs1 28.7%, C[N@+]12CCCC[C@@H]1CCC(=C(c1cccs1)c1cccs1)C2 9.22%, O=C(Oc1ccccc1)N1CCC[C@@]2(CCN(c3ccncc3)C2)C1 13.9%, CC(C)CCC[C@@H](C)[C@H]1CC[C@H]2[C@@H]3CC[C@@H]4C[C@H](O)CC[C@]4(C)[C@H]3CC[C@]12C -0.317%, C=CCN1CCc2cc(O)c(O)cc2C(c2ccccc2)C1 (centres undefined) 1.16% [at 75.8 µM], c1ccc2c(NC3CCNCC3)nc(-c3ccoc3)nc2c1 3.73%, O=C(C[n+]1cccc(Br)c1)c1ccc(I)cc1 24%, Nc1ncnc2nc[nH]c12 16.3%, O=C(CN1Cc2ccccc2OC(c2ccsc2)C1)NCc1ccc2c(c1)OCO2 (centres undefined) -4.22%, O=C(NCCCCCCNC(=O)ON=C1CCCCC1)ON=C1CCCCC1 31.2% [at 201 µM], COc1ccccc1C1CN(Cc2cnn(C)c2)Cc2ccccc2O1 (centres undefined) 12.7%, O=C(c1ccco1)N1CCC2(CCCN(c3ccccn3)C2)CC1 3.96%, OCCN1CCN(CC/C=C2/c3ccccc3Sc3ccc(Cl)cc32)CC1 22.2% [at 75.8 µM], CC(C)C[C@@H](CN=[N+]=[N-])N1CCN(Cc2ccccc2)CCC1=O 0.863%, O=C(O)C(Cc1cc(I)c(O)c(I)c1)c1ccccc1 (centres undefined) 7.71%, CC(C)NC(=O)N1CC[C@@]2(CCCN(C(=O)c3cccn3C)C2)C1 11.3%, Cc1c(CCO)sc[n+]1CC(=O)c1ccccc1 17.6%, O=c1cc(/C=C/c2ccc([N+](=O)[O-])cc2)c2ccccc2[nH]1 3.44%, NCCCS(=O)(=O)O, CC(O)(COc1ccccc1)c1ccc2c(c1)CN(C/C=C/c1ccco1)CCO2 (centres undefined) -13.4%, Cc1cnc(C)c(-c2cccc3c2OC(CNC(=O)/C=C/c2ccncc2)C3)n1 (centres undefined) 19.7%, CCC(=O)O[C@]1(C(=O)SCF)[C@H](C)C[C@H]2[C@@H]3C[C@H](F)C4=CC(=O)C=C[C@]4(C)[C@@]3(F)[C@@H](O)C[C@@]21C 28% [at 75.8 µM], COc1ccc(CN2CC[C@H]3C=CC[C@@H](C(=O)Nc4ccc(Cl)c(C(F)(F)F)c4)[C@H]3C2=O)cc1OC 2.44%, Nc1[nH]c(=O)ncc1F 23.9% [at 75.8 µM], COc1ncc2nc(-c3ccc(Cl)cc3)c(=O)n(Cc3cccs3)c2n1 -0.957%, O=C(O)c1ccc2c(c1)OCO2 15.5%, COc1ccc(-n2c(=O)c(-c3ccc(F)c(F)c3)nc3cncnc32)cc1 4.95%, O=C(/C=C/c1ccccc1)c1ccc(O)cc1 -12.2%, CN(Cc1ccco1)c1cc(-c2ccccc2Cl)ncn1 14.6%, CCc1cc(Cl)c(OC)c(C(=O)NC[C@@H]2CCCN2CC)c1O, COCCn1c(=O)c(-c2cccc(Cl)c2)nc2cncnc21 0.418%, CN(C)CCOC(=O)C(c1ccccc1)C1(O)CCCC1 (centres undefined), C[N+]1(C)C2CC(OC(=O)[C@H](CO)c3ccccc3)CC1C1OC12 (some centres undefined), CCCCN1CC[C@H]2C=CC[C@@H](C(=O)NCCc3ccccc3)[C@H]2C1=O -24.3%, Cc1cnc(-n2ncc(C(=O)NCC(C)(C)N3CCOCC3)c2C(C)C)nc1-c1ccc(F)cc1 13.9%, Nc1ncnc2c1ncn2[C@H]1O[C@@H](CSCC[C@@H](N)C(=O)O)[C@H](O)[C@@H]1O 16%, O=C1O[C@H]([C@@H](O)CO)C(O)=C1O, CN(C)c1ccc(C(=C2C=CC(=[N+](C)C)C=C2)c2ccccc2)cc1 6.76%, COCCn1c(=O)c(-c2ccccc2)nc2cnc(N3CCN(C)CC3)nc21 10.1%, CCNCCCNCCCNCCCNCC -6.31%, Clc1ccc(C(c2ccccc2Cl)C(Cl)Cl)cc1 (centres undefined), CCCCC/C=C\C/C=C\C/C=C\CCCCC(=O)O 12.2%, O=C(O)Cc1cc2ccccc2nc1C(=O)O -3.09%, COCC1CCCN(Cc2ccc3c(c2)CN(C(=O)c2ccc(OC)nc2OC)CCO3)C1 (centres undefined) 27%, COCCNc1nc(-c2ccccc2OC)nc2ccccc12 13.8%, N#Cc1cccc(-c2nccc(-n3ccnc3)n2)c1 10.4%, CN(Cc1ccco1)Cc1cc(-c2ccnc3cc(Cl)ccc23)ccc1O 5.85%, Cc1cccc(C)c1OCC(=O)N[C@@H](Cc1ccccc1)[C@@H](O)C[C@H](Cc1ccccc1)NC(=O)[C@H](C(C)C)N1CCCNC1=O -1.05%, O=C(NCCN1CCOCC1)c1cnn(-c2nccc(-c3ccccc3F)n2)c1C1CC1 6.19%, CC(C)NC(=O)N1CC[C@@]2(CCCN(C(=O)c3cnccn3)C2)C1 15.8%, O=c1c(CCc2ccccc2)nc2cnc(N3CCOCC3)nc2n1C[C@H]1CCCO1 2.37%, CS(=O)(=O)N1CCC2(CCN(c3ccccn3)CC2)CC1 -2.26%, COc1cccc(CNC(=O)c2c(OC)cc(=O)n3c2CCN(C(=O)c2ccc(C)nc2)CC3)c1 4.71%, O=C(O)c1ccccc1Nc1cccc(C(F)(F)F)c1 13.8%, OCCc1ccccc1 -6.32%, O=C(c1ccc(F)cc1)C1CCN(CCn2c(=S)[nH]c3ccccc3c2=O)CC1 12%, COc1cc(C/C=C\c2ccccc2)c(OC)cc1O -5.85%, COc1ccc(CCCO[C@@H](Cn2ccnc2)c2ccc(OC)cc2)cc1 -16.2%, NC(N)=NCCCCN=C(N)N, COc1cccc(Cn2c(=O)c(-c3cccc(Cl)c3)nc3cncnc32)c1 6.26%, C=CCN1[C@@H](C(C)C)COCCS1(=O)=O 14%, Cc1cc(=O)c2c(O)cc(O)c(C)c2o1 -17%, O=C1Nc2ccc(Cl)cc2[C@@](C#CC2CC2)(C(F)(F)F)O1 -28.4%, O=C(NC[C@@H]1CCCN2CCCC[C@H]12)c1cnn(-c2nccc(-c3ccco3)n2)c1C1CC1 15.9%, c1ccc2sc(N3CCN(Cc4ccc5c(c4)OCO5)CC3)nc2c1, N#CCCn1c(=O)c(-c2cc(F)cc(F)c2)nc2cnc(Oc3ccccc3)nc21 2.31%, Nc1ccc(C(=O)O)c(O)c1, CN(Cc1ccco1)c1ncncc1-c1ccc2c(c1)OCO2 -2.58%, COc1ccc(CNc2cc(-c3ccccc3C)ncn2)c(OC)c1 -12%, CCOc1nc2cccc(C(=O)O)c2n1Cc1ccc(-c2ccccc2-c2nn[nH]n2)cc1 9.91%, CS(=O)(=O)c1ccc(-c2cccc3c2OC(CNC(=O)c2cc(C4CC4)[nH]n2)C3)cc1 (centres undefined) 8.08%, O=C1CC[C@@H](O)CCN1CC[C@H](Sc1ccccc1)c1ccccc1 1.68%, COc1ccccc1CN1CCCC2(CCN(C(C)=O)CC2)C1 15.5%, CCCCCCCCCCCCCCCCCCNC(=O)OCC(COP(=O)([O-])OCC[n+]1ccsc1)OC (centres undefined) 27.5% [at 75.8 µM], Cc1ncc(CO)c(CN)c1O 6.02%, O=C(c1ccccc1)c1ccccc1 18%, Cc1ccnc2ccc3ccccc3c12 19.1%, O=C(Nc1cccc(F)c1)N1CC[C@@]2(CCCN(C(=O)c3cnccn3)C2)C1 15%, COc1ncc2nc(-c3cn(C)c4ccccc34)c(=O)n(C)c2n1 21.6%, CCCCN1CCCC[C@H]1C(=O)Nc1c(C)cccc1C 10.2%, CN(C)c1ccc(-c2c(-c3ccc4c(c3)OCO4)noc2-c2ccsc2)cn1 -11.2%, CC(N)(C(=O)O)c1ccc(-c2nn[nH]n2)cc1 (centres undefined) 32.8%, O=C(NCC1CCC2(CCN(Cc3ccc4ncccc4c3)CC2)O1)C1CCCO1 (centres undefined) -3%, COc1ccc(C(=O)N(Cc2cc3cccc(C)c3nc2N(C)C)CC2CCCO2)cc1 (centres undefined) 2.57%, O=c1c(-c2cccs2)nc2cncnc2n1C1CC1 17%, O=C(NCC1CCC2(CCN(Cc3cnn(-c4ccc(F)cc4)c3)CC2)O1)c1ccccc1 (centres undefined) -6.2%, O=C(Nc1ccccc1)C12CC1/C(=N\O)c1ccccc1O2 (centres undefined) 17.8%, CC(=O)Oc1ccc(C(c2ccc(OC(C)=O)cc2)c2ccccn2)cc1, CN(C)C(=O)COC(=O)Cc1ccc(OC(=O)c2ccc(N=C(N)N)cc2)cc1 7.18%, Cc1ncc2c(c1CNC(=O)/C=C/c1cccs1)CCN(C(=O)c1noc3c1CCCC3)C2 0.3%, O=c1c(CCc2ccccc2)nc2cnc(Oc3ccccc3)nc2n1C1CC1 -12%
